Assay results published in PubChem BioAssay AID686978 (National Center for Advancing Translational Sciences (NCATS), 2013).
Where “and” joins values, the source holds several entries; their conditions need not be identical. Identical values can stand only once. About 64,000 (15%) of roughly 420,000 compounds were called active. This list was built around the results that the source calls inconclusive (neither active nor inactive); the mix of calls is not that of the screen. Calls come from the whole dose curve; as a rule, active = well fitted inhibition curve with a large enough effect; inconclusive = small, poorly fitted or top-dose-only effect; inactive = flat fitted curve, though single readings scatter. Where the call is inconclusive, the potency comes from a doubtful curve fit.

Experiment: qHTS for Inhibitors of human tyrosyl-DNA phosphodiesterase 1 (TDP1): qHTS in cells in absence of CPT; note: nearly all actives have a fitted effect of over 55% in size
Settings: DT40 Tdp1-/- hTDP1 cells, no CPT, ATP luminescence, 48 h; activity change, negative = growth inhibition: at 46.2 µM (top of the series) unless noted
How it was run: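 A cellular qHTS used chicken DT40 cells lacking endogenous Tdp1 but carrying stably transfected human TDP1. Compounds were applied without camptothecin, and cell growth kinetics were judged by ATP-dependent luminescence after ≥48 hr.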
% is set by controls: 0 for no effect and ±100 for the full control effect; potency is the fitted concentration of half-maximal effect; tags give direction and shape of the fitted curve.

Compound | Potency | activity change, negative = growth inhibition
Cc1nc2scc(C)n2c(=O)c1S(=O)(=O)Nc1ccc(N2CCOCC2)cc1 | inconclusive: 25.9 µM [inhibitor, single point] and inconclusive: 23.1 µM [inhibitor, partial curve] | 
N#CCCN(Cc1cccs1)C(=O)c1ccc(Cl)cc1 |  | inactive: -9.3%
CN(C)c1ccc(/C=C/c2ccc3ccccc3[n+]2[O-])cc1 | active: 12.6 µM | 
Cc1ccc(-n2ncc(C(=O)Nc3ccc4c(c3)OCO4)c2C2CCN(C(=O)OC(C)(C)C)CC2)cc1 | active: 20.6 µM | 
COc1ccc(NC(=S)N(CCc2c(C)[nH]c3ccc(C)cc23)Cc2ccco2)cc1 | inconclusive: 25.9 µM [inhibitor, single point] | 
CC(C)OCCCN1CN(S(=O)(=O)c2cccs2)c2nc3ccccc3nc21 |  | inactive: -23.6%
COc1ccccc1C(=O)NC(=O)CSc1nc(C)cs1 |  | inactive: 5.39%
Cc1ccnc(NS(=O)(=O)c2cc(-c3cc(C)no3)ccc2C)c1 |  | inactive: -11.3%
O=[N+]([O-])c1cccc(S(=O)(=O)NCC2CCCO2)c1 (configuration not stated) |  | inactive: 7.37%
CCc1c(C2(O)CCCCC2)[nH]c2ccc(C(=O)OC)cc12 |  | inactive: -21.3%
CN1CCN(c2ccc(NC(=O)c3ccc(C#N)cc3F)cc2Cl)CC1 | inconclusive: 16.4 µM [inhibitor, partial curve, poor fit] | 
O=C(COc1ccc2c(c1)CCC2)Nc1ccccn1 |  | inactive: -1.71%
Cc1cc2ccccc2n1CCC(=O)O |  | inactive: 7.92%
O=[N+]([O-])c1ccc2nc(-c3ccccc3)[nH]c2c1 | inconclusive: 23.1 µM [inhibitor, single point] | 
N#Cc1cn(CCOC(=O)c2cccc(C(F)(F)F)c2)c(=O)[nH]c1=O | inconclusive: 0.0052 µM [inhibitor, full curve, poor fit] | 
O=C(NC(=S)Nc1ccc(Br)cc1)C1CCC1 |  | inactive: 7.65%
Cc1cc(Oc2ccccc2)nc(-c2ccccc2O)n1 |  | inactive: -19.5%
CCOCCn1ccc2c(OCC(=O)Nc3ccc(OC(F)(F)F)cc3)cccc2c1=O | inconclusive: 6.51 µM [inhibitor, full curve] | 
CCc1nc(N2CCCCC2C)c2oc3ccccc3c2n1 (configuration not stated) | active: 25.9 µM | 
COc1ccc2c(c1)oc(=O)c1ccccc12 | inconclusive: 29.1 µM [inhibitor, single point] | 
CC(=O)c1cccc(NC(=O)CCS(=O)(=O)c2ccc(Br)s2)c1 | inconclusive: 29.1 µM [inhibitor, single point] | 
CCCCN(C(=O)CCCc1nc2ccccc2c(=O)[nH]1)c1c(N)n(CC(C)C)c(=O)[nH]c1=O |  | inactive: -5.4%
CCOC(=O)C1(C)CCCN(C(=O)c2cccc(OC(F)(F)F)c2)C1 (configuration not stated) | inconclusive: 25.9 µM [inhibitor, single point] | 
COc1ccc(OC)c(NC(=O)NCc2cccnc2)c1 |  | inactive: 23.7%
Cc1ccc(S(=O)(=O)c2cn(Cc3ccc(F)cc3)c3cc(F)c(F)cc3c2=O)cc1 |  | inactive: 1.35%
Cc1ccc(C(=O)N=c2sccn2C)cc1C | inconclusive: 18.4 µM [inhibitor, single point] | 

Compound | Potency | activity change, negative = growth inhibition
Cc1[nH]c2ccc(C(=O)N3CCCC3)cc2c1C |  | inactive: -1.46%
COc1ccccc1C(c1c(N)n(C)c(=O)n(C)c1=O)C(C)[N+](=O)[O-] (configuration not stated) | inconclusive: 20.6 µM [inhibitor, single point] | 
N#CC1=C(SCC(=O)c2ccccc2)NC2=C(C(=O)CCC2)C1c1ccco1 (configuration not stated) | active: 2.59 µM | 
CCN(C(=O)Cn1c(=O)oc2cc(Cl)ccc21)c1cccc(C(F)(F)F)c1 |  | inactive: -24.8%
COc1nc(=O)n(C2C=CC(=O)O2)cc1F (configuration not stated) | active: 2.31 µM | 
CCn1nc(-c2ccccc2C)nc2c(=O)n(C)c(=O)nc1-2 | active: 1 µM | 
Cc1cccc(N2CCN(C(=O)c3c(Cl)cnn3C)CC2)c1C | inconclusive: 29.1 µM [inhibitor, single point] | 
O=C(CCS(=O)(=O)c1cccc2nonc12)N1CCCc2ccccc21 |  | inconclusive: -30.8% [inhibitor]
C(=N\Nc1nc(-c2ccccc2)cs1)/c1cccs1 | inconclusive: 16.4 µM [inhibitor, single point] | 
COc1ccc(OC)c(CN2CCN(Cc3cc(=O)oc4cc(O)ccc34)CC2)c1 | inconclusive: 10.3 µM [inhibitor, partial curve, poor fit] | 
Cc1cc(Nc2ccc(F)c(F)c2)nc(-c2ccccc2O)n1 |  | inactive: -26.2%
CCOC(=O)c1c(-c2ccc(OC)cc2)csc1NC(=O)CSc1ncnc2sccc12 | inconclusive: 23.1 µM [inhibitor, single point] | 
COc1ccc2cc(/C=C3\SC(=S)NC3=O)c(N3CCOCC3)nc2c1 | active: 11.6 µM | 
C=CCNC(=S)N1CCC(C(=O)c2ccc(C)cc2)CC1 | inconclusive: 23.1 µM [inhibitor, single point] | 
Cc1nnn(C23CC4CC(CC(CC(=O)Nc5ccc(C)c(Cl)c5)(C4)C2)C3)n1 | inconclusive: 20.6 µM [inhibitor, single point] | 
COc1ccc(-c2sc(Nc3ccccc3)n[n+]2-c2ccc(F)cc2)cc1Br | active: 18.4 µM | 
O=C1Nc2ccccc2Cc2ccccc21 |  | inconclusive: -4.49% [inhibitor]
COc1ccc(-c2csc(N3N=C(C)C(C)C3=O)n2)cc1 (configuration not stated) | inconclusive: 23.1 µM [inhibitor, single point] | 
CN1C(=O)C2(c3ccccc31)N(c1cccc(F)c1)C(=O)CS2(=O)=O (configuration not stated) |  | inactive: -2.19%
Cc1ccc(S(=O)(=O)Nc2cccc(-c3ccc4nncn4n3)c2)cc1 | active: 2.31 µM | 
Cc1ccc(-c2noc(CCC(=O)N3CCN(c4cc(C)ccc4C)CC3)n2)cc1 |  | inactive: -19.2%
COc1ccc(C(=O)C(C)OC(=O)C2CC3CCCC(C2)C3=O)cc1 (configuration not stated) | inconclusive: 29.1 µM [inhibitor, single point] | 
CN(Cc1ccccc1)Cc1nc2scc(-c3ccccc3)c2c(=O)[nH]1 | inconclusive: 25.9 µM [inhibitor, single point] | 
O=C(CN1CCN(c2ccc([N+](=O)[O-])cc2)CC1)Nc1nccs1 | inconclusive: 11.6 µM [inhibitor, partial curve, poor fit] | 
O=S(=O)(c1ccc(Nc2ccc(-c3ccc4c(c3)OCCO4)nn2)cc1)N1CCCC1 | inconclusive: 18.4 µM [inhibitor, partial curve, poor fit] | 
COCCCNC(=O)c1cc(-c2cccnc2)nc2ccc(S(=O)(=O)N3CCC(C)CC3)cc12 |  | inactive: 0.0263%

Compound | Potency | activity change, negative = growth inhibition
CCCCn1c(SCC(=O)Nc2cc(C)on2)nc2ccsc2c1=O | inconclusive: 1.84 µM [inhibitor, partial curve] | 
CC1CCN(Cc2nc3c(c(=O)n(C)c(=O)n3C)n2CCCc2ccccc2)CC1 | active: 16.4 µM | 
COc1ccccc1NC(=O)N1CCN(c2cc(-c3ccccc3)nc3ncnn23)CC1 | active: 4.11 µM | 
O=C(NCc1ccccc1Cl)c1cnc2sc(N3CCCCC3)nn2c1=O | active: 9.2 µM | 
COc1ccc(Cl)cc1NC(=O)c1c(NCc2sccc2C)sc2c1CCCC2 | active: 20.6 µM | 
Cc1nc([N+](=O)[O-])cn1CC(O)c1ccc2c(c1)OCO2 (configuration not stated) |  | inactive: 4.42%
O=C1NC(Cc2ccc(O)cc2)c2nc3ccc(Cl)cc3c(=O)n2-c2cc3ccccc3cc21 (configuration not stated) | active: 5.17 µM | 
COCCSc1nnc(NC(=O)Cc2cccs2)s1 |  | inconclusive: -31.2% [inhibitor]
O=c1cc(-c2ccc(O)cc2)oc2cc(O)c(C3OC(CO)C(O)C(O)C3O)c(O)c12 (configuration not stated) | inconclusive: 23.1 µM [inhibitor, single point] | 
O=C(COc1nc2ccccc2nc1N1CCOCC1)Nc1cccc(S(=O)(=O)N2CCCCC2)c1 | inconclusive: 23.1 µM [inhibitor, single point] | 
CCn1cc(C2=NOC(C(=O)Nc3ccccc3C(=O)OC)C2)c(C)n1 (configuration not stated) | inconclusive: 20.6 µM [inhibitor, single point] | 
COc1ccc(CN2C(=O)C(CC(=O)NCC3CCCCC3)CC(C(=O)N(C)C)=C2C)cc1 (configuration not stated) | inconclusive: 16.4 µM [inhibitor, partial curve, poor fit] | 
COc1cc(CNCCSc2nnnn2C)cc(Br)c1OCc1ccccc1F | inconclusive: 18.4 µM [inhibitor, partial curve, poor fit] | 
CC(C)NC(=O)C1(C)CCN1C(=O)C1(c2ccccc2)CC1 (configuration not stated) |  | inactive: -23.6%
CN1CCN(c2nc3c(c(=O)[nH]c(=O)n3C)n2Cc2ccc([N+](=O)[O-])cc2)CC1 |  | inactive: -12%
O=C1/C(=C/c2cccs2)CCC1C1CCCC1 (configuration not stated) | inconclusive: 20.6 µM [inhibitor, single point] | 
Cc1nc2c(n1C1CCCCC1)C(=O)c1ccccc1C2=O | active: 14.6 µM | 
CCCS(=O)(=O)N1CCN=C1SCc1ccc(F)cc1 | inconclusive: 7.31 µM [inhibitor, partial curve] | 
O=S(=O)(c1ccc(Br)cc1)c1nc(-c2cccs2)oc1SCc1ccccc1F | inconclusive: 16.4 µM [inhibitor, single point] | 
Brc1ccc(OCCn2ccnc2)cc1 |  | inactive: -7.13%
c1ccc(C2Nc3ccccc3Oc3ccccc32)cc1 (configuration not stated) |  | inactive: -14%
CN(Cc1ccccc1C#N)S(=O)(=O)c1cccs1 |  | inconclusive: -31.6% [inhibitor]
Cc1ccc(C(=O)Nc2ccnc(-c3cccnc3)n2)cc1 | inconclusive: 23.1 µM [inhibitor, partial curve, poor fit] | 
CSc1cccc(NC(=O)C2C3C=CC4(O3)C2C(=O)N(CCN2CCOCC2)C4C(=O)NC2CCCCC2)c1 (configuration not stated) |  | inactive: 8.99%
Cc1ccc(CC2CC(=O)N(c3ccc(C)cc3)C2=O)cc1 (configuration not stated) |  | inactive: 1.8%
